Source: PubChem BioAssay AID540317 (National Center for Advancing Translational Sciences (NCATS), 2011)
Screen size: about 390,000 compounds; about 2,200 (0.56%) were called active. A call without a number means that no potency is given here. Inconclusive results, whose numbers are uncertain, are shown with a selection of clear calls. Calls come from the whole dose curve; as a rule, active = well fitted inhibition curve with a large enough effect; inconclusive = small, poorly fitted or top-dose-only effect; inactive = no such curve, though single readings can be large or run the other way. Where the call is inconclusive, the potency comes from a doubtful curve fit.

target: Chromobox protein homolog 1 (Homo sapiens) (UniProt P83916); assay: HTS for Inhibitors of HP1-beta Chromodomain Interactions with Methylated Histone Tails; conditions: AlphaScreen HP1-beta / biotin-H3K9me3 peptide binding; series mostly up to 114 µM; note: nearly all actives have a fitted effect of over 70% in size
Chain of UniProt P83916 (P83916 whole entry, looked up): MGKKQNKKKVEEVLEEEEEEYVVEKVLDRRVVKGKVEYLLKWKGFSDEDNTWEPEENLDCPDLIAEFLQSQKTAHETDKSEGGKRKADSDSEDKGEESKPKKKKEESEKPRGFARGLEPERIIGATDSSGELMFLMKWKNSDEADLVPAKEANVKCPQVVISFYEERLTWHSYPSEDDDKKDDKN
Outline: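 Compound inhibition of the preformed complex between 50 nM HP1-beta and 50 nM biotinylated H3K9me3 peptide was read by AlphaScreen. Buffer was PBS pH 7.4 with 0.01% Tween-20. Incubations ran 30 min at room temperature, with 10 ug/mL donor/acceptor beads.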
Potency is the fitted concentration of half-maximal effect; tags give direction and shape of the fitted curve.

Row | Structure (SMILES) | Potency
1 | COc1ccc(C(=O)NCC(c2ccc(N(C)C)cc2)N2CCc3ccccc32)cc1OC (centres undefined) | inconclusive: 25.1 µM [inhibitor, full curve]
2 | CCc1ccc(NC(=O)Cn2c(=O)n(CCC(=O)NCCc3ccc(Cl)cc3)c(=O)c3ccccc32)cc1 | inactive
3 | COc1cc2c(cc1OC)CN(CC(=O)Nc1ccc3c(c1)OCO3)CC2 | inactive
4 | S=c1[nH]nc(-c2ccco2)n1C1CCCCC1 | inconclusive: 79.4 µM [inhibitor, single point]
5 | COc1ccc(N=Cc2c(O)c3ccccc3oc2=O)cc1 | inactive
6 | Cc1ccc(N(CC(=O)NC2CCCCC2)S(=O)(=O)c2c(C)noc2C)cc1 | inactive
7 | COc1ccc(C(=O)Nc2ccccc2C(=O)NCc2cccnc2)cc1OC | inactive
8 | O=C(CCc1c[nH]c2ccccc12)OCc1cccc([N+](=O)[O-])c1 | inconclusive: 22.4 µM [inhibitor, partial curve, poor fit]
9 | CC1CCCCN1CCNC(=O)C1CCCN(S(=O)(=O)c2cccc3nsnc23)C1 (centres undefined) | inactive
10 | O=C(NCc1cccnc1)c1ccc(Cl)c(S(=O)(=O)N2CCOCC2)c1 | inactive
11 | CN(C)CCSc1nc(-c2ccccc2)nc2c1CCCC2 | inconclusive: 70.8 µM [inhibitor, partial curve]
12 | COc1cccc2c1OCC(C(=O)NCc1ccc(Cl)cc1Cl)=C2 | inconclusive: 25.1 µM [inhibitor, single point]
13 | COc1ccc(N=CC2CCCCC2=O)c([N+](=O)[O-])c1 (centres undefined) | active: 44.7 µM
14 | COc1ccc(NC(C)c2ccccc2)cc1 (centres undefined) | inconclusive: 39.8 µM [inhibitor, single point]
15 | CCN1CCN(CC(=O)N/N=C/c2ccc(F)cc2F)CC1 | inconclusive: 44.7 µM [inhibitor, partial curve]
16 | CCC(Oc1ccccc1)C(=O)Nc1ccc(S(=O)(=O)Nc2cc(C)on2)cc1 (centres undefined) | inactive
17 | CN(C)c1ccc(Nc2ncnc3sc4c(c23)CCCC4)cc1 | active: 22.4 µM
18 | NNC(=O)c1ccccc1CO | inactive
19 | Nc1sc2c(c1C(=O)NC1CC1)CCCC2 | inconclusive: 11.2 µM [inhibitor, full curve]
20 | CC(=O)c1ccc(NC(=O)CN2CCN(c3ncccn3)CC2)cc1 | inconclusive: 17.8 µM [inhibitor, single point]
21 | N#Cc1cc2c(nc1SCc1cccnc1)CCC2 | inactive
22 | O=C(Cn1nnc2ccccc21)c1ccccc1 | inactive
23 | O=C(Nc1nc2ccc(SC(F)F)cc2s1)c1ccc(NS(=O)(=O)c2ccc(F)c(F)c2)cc1 | inactive
24 | Cc1ccc(-n2cc(-c3ccc([N+](=O)[O-])cc3)[nH]c2=S)c(C)c1 | inconclusive: 50.1 µM [inhibitor, partial curve, poor fit]
